Experimental data: PubChem BioAssay AID360 (National Center for Advancing Translational Sciences (NCATS), 2006)
The whole screen tested about 48,000 compounds, of which about 550 (1.1%) were called active. Roughly 4% stayed inconclusive and do not appear here. Cut-off read from the data, not from the text of the source: active = potency below about 15 µM; inconclusive = mostly about 16 µM to 33 µM; inactive = weaker than that. Some of the results follow.

molecular target: Lysosomal acid glucosylceramidase (Homo sapiens) (UniProt P04062); assay: Glucocerebrosidase; conditions: purified enzyme, resorufin glucoside fluorescence (screen aimed at inhibitors), 20 min;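 note: the screen sought inhibitors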
Sequence of UniProt P04062 (P04062 whole entry, looked up): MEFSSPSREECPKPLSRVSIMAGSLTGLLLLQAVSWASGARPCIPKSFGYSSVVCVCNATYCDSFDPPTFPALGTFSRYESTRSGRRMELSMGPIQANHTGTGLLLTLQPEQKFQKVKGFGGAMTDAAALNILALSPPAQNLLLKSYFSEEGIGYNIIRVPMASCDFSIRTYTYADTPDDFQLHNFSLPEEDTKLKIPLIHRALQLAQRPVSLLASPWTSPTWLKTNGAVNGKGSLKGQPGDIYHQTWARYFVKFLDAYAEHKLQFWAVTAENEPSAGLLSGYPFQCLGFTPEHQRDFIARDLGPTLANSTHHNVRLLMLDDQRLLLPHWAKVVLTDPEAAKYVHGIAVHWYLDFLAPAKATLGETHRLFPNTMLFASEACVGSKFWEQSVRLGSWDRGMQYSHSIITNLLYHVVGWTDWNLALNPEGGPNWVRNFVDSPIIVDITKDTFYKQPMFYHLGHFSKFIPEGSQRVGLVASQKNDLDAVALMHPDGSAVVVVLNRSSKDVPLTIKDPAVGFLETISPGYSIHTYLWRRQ
How it was run: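 Wild-type enzyme at 0.2 nM final in 50mM citric acid/KH2PO4, 10mM sodium taurocholate, 0.01% tween-20, pH 5.9, with resorufin beta-D-glucopyranoside at 30 uM final. Compounds titrated, 20 min at RT, red fluorescence read; AC50 from titration.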
Potency is the fitted concentration of half-maximal effect.

Potency, inactive:
CCC(=O)N1CCc2cc(S(=O)(=O)NCCN3CCC(C)CC3)ccc21 > 76.9 µM
NC(=O)c1ccccc1NC(=O)CN1CCOCC1 > 76.9 µM
Cc1cccc2cc(CN(Cc3ccco3)C(c3nnnn3CCc3ccccc3)C(C)C)c(=O)[nH]c12 (stereo not drawn) > 76.9 µM
Cc1cc(=O)n2nc(N3CCCC(C(=O)N4CCN(c5ccccc5)CC4)C3)sc2n1 (stereo not drawn) > 76.9 µM
CCS(=O)(=O)N1CCCC(C(=O)NCc2ccc3c(c2)OCO3)C1 (stereo not drawn) > 76.9 µM
Cc1ccccc1NS(=O)(=O)c1cc(S(C)(=O)=O)ccc1Cl > 76.9 µM
COC(=O)Cc1cc(=O)n(-c2nc3ccccc3s2)[nH]1 > 76.9 µM
CCOC(=O)C1(C)NC(c2ccc(OC)cc2OC)C2C(=O)N(c3cccc(OC)c3)C(=O)C21 (stereo not drawn) > 76.9 µM
CC(C)(C)c1cc(NC(=O)C2CCCO2)no1 (stereo not drawn) > 76.9 µM
O=C(Nc1nccs1)c1ccc(Cl)c(S(=O)(=O)N2CCOCC2)c1 > 76.9 µM
CC(=O)c1c(C)nc(-c2ccc(Cl)cc2)nc1NC(=O)C(C)C > 76.9 µM
CC1(C)CC(=O)NC=C(c2ccccc2)C1 > 76.9 µM
Cc1ccc(C(=O)OCc2cc3ccccc3[nH]c2=O)cc1 > 76.9 µM
COc1cccc(NC2CC(=O)N(CCc3ccccc3)C2=O)c1 (stereo not drawn) > 76.9 µM
CCOC(=O)C1C(c2cccs2)NC(=O)NC1(O)C(F)(F)F (stereo not drawn) > 76.9 µM
CCOc1ccccc1NC(=O)N1CCCC1C(=O)Nc1ccc(NC(C)=O)cc1 (stereo not drawn) > 76.9 µM
OC(C#CCN1CCOCC1)(c1ccccc1)C1CC1 (stereo not drawn) > 76.9 µM
CC(=O)c1cccc(NC(=O)N2CCCC2C(=O)Nc2ccccc2C)c1 (stereo not drawn) > 76.9 µM
C1CN(c2nc3nonc3nc2N2CCOCC2)CCO1 > 76.9 µM
COc1ccc(C(NC(=O)CNC(C)=O)C(=O)Nc2ccc3c(c2)OCCO3)cc1 (stereo not drawn) > 76.9 µM
O=C(c1ccccc1)N1CCN(Cc2c[nH]c3ccccc23)CC1 > 76.9 µM
COc1ccc(N2CC(C)Cn3c2nc2c3c(=O)n(Cc3ccccc3F)c(=O)n2C)c(OC)c1 (stereo not drawn) > 76.9 µM
CCCCNC(=O)CCCCCn1c(=O)[nH]c2cc(OC)c(OC)cc2c1=O > 76.9 µM
CC(C)OC(=O)c1ccc(NC(=O)C2C3CC4OC(=O)C2C4C3)cc1 (stereo not drawn) > 76.9 µM
Cc1nc2ccccc2c(=O)n1NC(=O)c1ccccc1Cl > 76.9 µM
CN(c1ccccc1C(=O)N1CCOCC1)S(C)(=O)=O > 76.9 µM
COc1ccc2[nH]c(=O)c(CN(C3CCCCC3)C(c3nnnn3Cc3ccco3)C(C)C)cc2c1 (stereo not drawn)
Fc1cccc(CN2CCCCCCC2)c1 > 76.9 µM
CCCc1cc(=O)[nH]c(SCC(=O)N(C)CC(=O)Nc2ccccc2CC)n1 > 76.9 µM
O=P(O)(O)c1ccccc1OCc1ccccc1 > 76.9 µM
Cc1ncsc1CCOC(=O)c1cccnc1 > 76.9 µM
CCOc1ccccc1N1CC(C(=O)Nc2nccs2)CC1=O (stereo not drawn) > 76.9 µM
CCOC(=O)N1CCN(C(=O)c2cc3c(ccc4ccccc43)oc2=O)CC1 > 76.9 µM
O=C(COC(=O)c1ccco1)Nc1ccccc1 > 76.9 µM
CCC1CCCCN1CCCNC(=O)c1ccc(CS(=O)(=O)Cc2ccccc2F)o1 (stereo not drawn) > 76.9 µM
Cc1cc(=O)[nH]c(SCC(=O)Nc2nc3c(s2)CCCC3)n1 > 76.9 µM
CC(=O)N1CCC2(CC1)C(C#N)=C(N)Oc1n[nH]c(CSc3ccc(C)cc3)c12 > 76.9 µM
C=CCc1ccc(OCC(O)CN2CCCCC2C)c(OC)c1 (stereo not drawn) > 76.9 µM
Cc1cc(Cl)ccc1OCCCC(=O)N1CCN(C(=O)c2ccco2)CC1 > 76.9 µM
COC(=O)CSc1nnc(CNc2ccc(OC)cc2)n1C > 76.9 µM
COc1ccc(C(=O)Nc2nnc(-c3ccccc3)o2)cc1OC > 76.9 µM
c1ccc2c(c1)C(=Nn1cnnc1)c1ccccc1-2 > 76.9 µM
COc1ccc(C(C(=O)NC2CCCCC2)N2CCC3(CC2)OCCO3)cc1 (stereo not drawn) > 76.9 µM
COc1ccc(C(=O)N(CCCO)C(C)C(=O)NC2CCCCC2)cc1OC (stereo not drawn) > 76.9 µM
Cc1ccccc1-c1n[nH]c(=S)o1 > 76.9 µM
CCn1c(COc2cccc(OC)c2)nnc1SCC(=O)Nc1cc(OC)ccc1OC > 76.9 µM
Cc1cccn2c(=O)c3cc(C(=O)NCCCn4ccnc4)n(C)c3nc12 > 76.9 µM
COc1cc2nc(-c3cccs3)oc(=O)c2cc1OC > 76.9 µM
CCCc1ccc(OCc2nc(-c3ccc(NC(=O)c4ccco4)cc3)no2)cc1 > 76.9 µM
c1csc(-c2nc3nc4ccccc4nc3n2Cc2ccc3c(c2)OCO3)c1 > 76.9 µM
Cc1c(=O)n(OCc2ccccc2F)c2ccccc2[n+]1[O-] > 76.9 µM
COc1cc2nc3c4ccccc4n(CC#N)c3nc2cc1OC > 76.9 µM
Cn1c(=O)c2c(nc(N3CCCCCC3)n2CC(=O)c2ccc(Br)cc2)n(C)c1=O > 76.9 µM
O=S(=O)(Nc1ccccn1)c1ccc(Oc2ccccc2)cc1 > 76.9 µM
Cc1cc(C)c2[nH]c(=O)c(CN(CC3CCCO3)C(=O)C3CCCO3)cc2c1 (stereo not drawn) > 76.9 µM
O=C(NC1CCN(Cc2ccccc2)CC1)C1CCN(S(=O)(=O)c2cccc3nsnc23)CC1 > 76.9 µM
CCN(CC)S(=O)(=O)c1cccc(-c2nnc(SCCCC(=O)c3ccccc3)o2)c1 > 76.9 µM
C=CCn1c(SCC(=O)Nc2cc(C)cc(C)c2)nnc1-c1cnccn1 > 76.9 µM
